# In publication PMC4242493:
# Some of the results follow. The list includes weakly bound sequences.
# Target: MaxL homodimer (UniProt P61244)
# Assay: universal protein-binding microarray (PBM)
# Settings: PBS-based mixture, 10 nM His-tagged protein dimer, 2% milk, 200 ng/uL BSA, 50 ng/uL salmon testes DNA, 0.02% TX-100; detection with Alexa 488 anti-His …; high values mean tight binding; most listed sequences are background and not binding sites; double strand, one strand shown
# Sequence of UniProt P61244 (P61244 whole entry): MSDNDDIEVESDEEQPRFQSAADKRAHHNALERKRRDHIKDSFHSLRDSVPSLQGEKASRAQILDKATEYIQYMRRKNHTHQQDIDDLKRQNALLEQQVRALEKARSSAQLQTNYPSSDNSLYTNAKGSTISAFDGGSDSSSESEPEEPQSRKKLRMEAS
row,Sequence,binding signal (normalized occupancy)
1,CCAGACCC,0.0772
2,CAATGATC,0.0797
3,CTCACTCC,0.0728
4,AACCTGCT,0.0743
5,ACCGTGGG,0.0732
6,TTAATAAA,0.0743
7,GATCCTCA,0.0779
8,TAGCCCGA,0.066
9,AATTAATG,0.0696
10,TATTGTCA,0.0833
11,CAACATAC,0.079
12,CGACCGCC,0.0733
13,CAATATAA,0.0773
14,CTACTTGC,0.0752
15,AGTGGGCC,0.0729
16,CCCACCAA,0.0738
17,CCTCACGC,0.0905
18,ATTCTTGG,0.074
19,GCAGTGGC,0.0659
20,AAAATGAG,0.0781
21,AACATCTG,0.0767
22,CCATTGCA,0.0774

row,Sequence,binding signal (normalized occupancy)
1,AAAGCTAT,0.0735
2,CTCAGGTA,0.0773
3,AATCAAAG,0.074
4,AGTGCAAA,0.0754
5,ACTTTCAT,0.0735
6,TATTTACA,0.0806
7,AATAGACA,0.0735
8,ATCACCGC,0.0749
9,ACTTAGCG,0.0738
10,CAGATTTC,0.0684
11,GCGCAGTA,0.071
12,GGTCGAGA,0.0728
13,CCTTCGCA,0.0743
14,GCCCCCTA,0.0701
15,CAGGCCTG,0.0765
16,CTGTGATC,0.0728
17,ATTCCCTG,0.0741
18,ATAAAGGG,0.0707
19,ATGTGGTG,0.0894
20,CGATGCGC,0.0736
21,CGTGTTGA,0.0871
22,GCACTTTA,0.0763

row,Sequence,binding signal (normalized occupancy)
1,GGTTCCGA,0.0719
2,TCCGCACA,0.0826
3,CGGAATGA,0.0748
4,CGAACGCA,0.0719
5,ACGGAGGG,0.0731
6,ATCAAGGG,0.0755
7,GGTATCGA,0.0769
8,ACAGCGAG,0.0728
9,CGTGGTTC,0.0858
10,AGTGAGAG,0.081
11,CCGCGTAA,0.0729
12,GCCAATAC,0.0791
13,GAACTCCC,0.0709
14,CGTCCTAC,0.0745
15,AAACTAGC,0.0695
16,CCTGCTAC,0.0758
17,CCAGCATA,0.0816
18,AAGACGTC,0.0742
19,ATCAAAAA,0.0723
20,TGGGGAAA,0.0728
21,ACGGTAAT,0.0786
22,ATCGTAGA,0.0797

row,Sequence,binding signal (normalized occupancy)
1,GACTAAAC,0.0764
2,AAACATTC,0.0753
3,CATGGTAC,0.0998
4,CATCGCCA,0.0788
5,CTCACGAG,0.0842
6,GCTTGAGA,0.0708
7,GCTCACGA,0.075
8,CAGATGGC,0.0848
9,ACAGACAT,0.0815
10,ACGCCGCG,0.0773
11,CTGTCGCC,0.0762
12,AGTAAGGA,0.0746
13,CAAGTAAC,0.0735
14,CGCTCAAG,0.0703
15,AGAGGCAT,0.0763
16,GCGTGCAA,0.0963
17,AAAGGGAT,0.0748
18,CAGGACCA,0.0726
19,ATAATCAT,0.0871
20,GATCCAAC,0.0725
